Source: PubChem BioAssay AID1508642 (National Center for Advancing Translational Sciences (NCATS), 2021)
The campaign covered roughly 43,000 compounds. About 200 (0.47%) were called active. About 12% were inconclusive and are not listed. Calls follow the shape of the dose curve; as a rule, active = well fitted cell-killing curve with a large enough effect; inconclusive = small, poorly fitted or top-dose-only effect, or effect the other way; inactive = flat fitted curve, though single readings scatter. Some of the results follow.

Assay: Cell viability qHTS assay in S16 Pmp22-F2sN cells; also: nearly all actives have a fitted effect of over 65% in size
Details: S16 Pmp22-F2sN Schwann cells (luciferase reporters placed in the Pmp22 gene) viability, CellTiter-Glo, 24 h; series mostly up to 57.5 µM; activity change, negative = cytotoxicity: at the top concentration
Method in brief: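 Seed 500-1,000 S16 Pmp22-F2sN cells per well in phenol-red-free DMEM with 10% heat-inactivated FBS; pin-add 23 nL compound; incubate 24 h at 37C; add CellTiter-Glo, wait 15 min protected from light; read luminescence.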
% is scaled to controls: 0 for no effect and ±100 for the full control effect.

Row | Structure (SMILES) | activity change, negative = cytotoxicity
1 | COc1ccc(NC(=O)Nc2nnc(N(CC(C)C)CC(C)C)s2)c(OC)c1 | inactive: -16%
2 | CCN(C(=O)c1cc2c(s1)-c1ccccc1OC2)c1cccc(C(F)(F)F)c1 | inactive: 4.1%
3 | COc1ccc(NC(=O)c2cc(C3CC3)nc3c2c(C)nn3-c2ccccc2)cc1OC | inactive: -0.0607%
4 | O=C(Cn1ncc2c3ccccc3n(Cc3ccc(F)cc3)c2c1=O)NCCCN1CCCCC1 | inactive: -1.68%
5 | Cc1ccc(CCNC(=O)c2c(C)nn(-c3ccc(F)cc3)c2-n2cccc2)cc1 | inactive: 1.73%
6 | O=C(CCS(=O)(=O)c1cccc2nonc12)Nc1ccc(Br)cc1 | inactive: -19.9%
7 | CC1=C(C(=O)Nc2ccccc2)C(c2ccc(O)cc2)n2nc(SCc3ccccc3)nc2N1 (stereo unspecified) | inactive: 22.3%
8 | CCOc1ccccc1NC(=O)N1CCC2(CC1)Oc1ccccc1C(=O)N2Cc1ccccc1F | inactive: -1.39%
9 | CCc1ccc(NC(=O)C(=O)NCCc2sc3nc(-c4ccc(OC)cc4)nn3c2C)cc1 | inactive: 0.0173%
10 | Cc1ccc(CNc2nc3ccc(C)cc3n3nnnc23)cc1 | inactive: 0.985%
11 | COc1cc(NC(=O)Cn2nc3c(cc2=O)CC(C)CC3)cc(OC)c1OC (stereo unspecified) | inactive: 1.45%
12 | COc1cc(OC)c(N(C)C(=O)c2sc3nc4n(c(=O)c3c2C)CCCCC4)cc1Cl | inactive: 5.66%
13 | COc1ccc2[nH]cc(CCN=C(NC(=O)c3ccccc3C)Nc3nc(C)cc(C)n3)c2c1 | inactive: -4.27%
14 | COc1ccc(OCC(=O)Nc2ccc(-c3nc4cc(C)c(C)cc4o3)cc2)cc1 | inactive: 6.72%
15 | CN(C)S(=O)(=O)N(CC(=O)NCCSc1ccccc1)c1ccccc1 | inactive: 27.6%
16 | CC(C)N(Cc1ccccc1)C(=O)CN1C(=O)CSc2ccc(S(=O)(=O)N3CCCC3)cc21 | inactive: 11.8%
17 | CCn1cc(C(=O)N2CCN(c3ccc(OC)cc3)CC2)c(=O)c2cc(S(=O)(=O)N3CCOCC3)ccc21 | inactive: -2.93%
18 | CC(=O)Nc1cccc(C(=O)NCc2ccc3c(c2)CCN3C(=O)c2ccc(F)cc2)c1 | inactive: 0.222%
19 | CC(=O)c1ccc(NC(=O)COCc2cc(-c3ccc(F)cc3)on2)cc1 | inactive: -0.883%
20 | COc1ccccc1NC(=O)C1=C(C)Nc2nc(SCc3ccccc3)nn2C1c1ccncc1 (stereo unspecified) | inactive: 1.39%
21 | Cc1cc(NC(=O)c2ccc(NC(=O)CCS(=O)(=O)c3cccs3)cc2)ccc1Br | inactive: -0.335%

Row | Structure (SMILES) | activity change, negative = cytotoxicity
22 | COc1cccc(NS(=O)(=O)c2ccc3[nH]cc(C(=O)N4CCCC4)c(=O)c3c2)c1 | inactive: 15.5%
23 | COc1ccc(-c2ccc(=O)n(CC(=O)Nc3ccc(OC)c(OC)c3)n2)cc1 | inactive: -7.82%
24 | CCOc1ccc(-c2nc(SCC(=O)Nc3cc(F)ccc3F)n3[nH]c(=O)cc3n2)cc1 | inactive: -1.66%
25 | Cn1cc(S(=O)(=O)N2CCOCC2)cc1C(=O)Nc1cccc(C#N)c1 | inactive: -2.54%
26 | CC(C)Oc1ccc(CNC(=O)Cn2nc(N3CCN(c4ccccc4)CC3)ccc2=O)cc1 | inactive: -21.8%
27 | COc1ccc(C2c3c(n(C)c4ccccc34)C(=O)N2CC(=O)Nc2ccc(F)cc2)cc1 (stereo unspecified) | inactive: -0.705%
28 | CC(C)c1ccc(CNc2n[nH]c(-c3ccco3)n2)cc1 | inactive: 1.4%
29 | COCCNC(=O)C1=CC(c2ccc3c(c2)OCO3)=NS(=O)(=O)N1C | inactive: -0.97%
30 | CCC(=O)N1CCc2cc(OC)c(OC)cc2C1COc1ccc2c(C)cc(=O)oc2c1 (stereo unspecified) | inactive: 11.6%
31 | Cc1ccc(C(=O)c2oc3ccccc3c2NC(=O)Cc2ccccc2)cc1 | inactive: 10.5%
32 | Cc1ccc(NC(=O)C2CCCN2S(=O)(=O)c2ccc3c(c2)n(C)c(=O)c(=O)n3C)cc1C (stereo unspecified) | inactive: 0.963%
33 | O=C1N(Cc2ccccc2)c2ccccc2C1(O)c1c[nH]c2ccccc12 (stereo unspecified) | inactive: -3.71%
34 | Cn1c(=O)c2c(SCC(=O)N3CCc4ccccc43)nc(-c3ccc(Cl)cc3)nc2n(C)c1=O | inactive: -2.56%
35 | CCn1nnc2cc(C(=O)Nc3ccc(Br)cc3F)ccc21 | inactive: 13.2%
36 | Cn1ncc2c(NCc3ccc(F)cc3)ncnc21 | inactive: -8.74%
37 | CCOC(=O)c1c(S(=O)(=O)N2CCC(C(=O)N3CCN(c4ccc(F)cc4)CC3)CC2)c(C)n(C)c1C | inactive: 0.0457%
38 | CCCOc1ccc(CNC(=O)CN2C(=O)c3cccnc3Oc3ccc(C)cc32)cc1 | inactive: -2.53%
39 | COC(=O)C1CCN(c2csc3ccc(Cl)cc3c2=O)CC1 | inactive: -4.06%
40 | O=C(NCCCO)c1nn(-c2ccc(Cl)cc2)nc1CO | inactive: 7.99%
41 | O=C(CN1C(=O)COc2ccc(S(=O)(=O)N3CCOCC3)cc21)N1CCN(c2ccccc2F)CC1 | inactive: 11.6%
42 | CCc1cccc(NC(=O)c2c(C)oc3nc(C)nc(N4CCCC4)c23)c1 | inactive: 1.21%

Row | Structure (SMILES) | activity change, negative = cytotoxicity
43 | Cc1ccc(NC(=O)C(=O)NCC2(c3ccccc3)CCCC2)cc1C | inactive: -29.6%
44 | CCc1ccc(NCc2cc3ccc(OC)cc3n(CC(=O)Nc3ccc(C)c(Cl)c3)c2=O)cc1 | inactive: 14.8%
45 | COc1ccc(C(=O)N(Cc2cc(OC)c(OC)c(OC)c2)C2CCS(=O)(=O)C2)cc1Cl (stereo unspecified) | inactive: 1.3%
46 | CCc1ccc(OCc2cc(=O)n3cc(C)sc3n2)cc1 | inactive: -1.16%
47 | CCOc1ccc2oc(=O)cc(CN3CCN(c4ccccc4OC)CC3)c2c1 | inactive: -11.4%
48 | COc1cc(OC)c(OC)cc1CNCCCSc1nnnn1C | inactive: 5.26%
49 | COc1cccc(NC(=O)Cn2c(=O)n(CCc3ccc(OC)c(OC)c3)c(=O)c3ccccc32)c1 | inactive: 19.1%
50 | Cn1c(C(=O)Nc2ccc(OC(F)(F)F)cc2)cc2c(=O)n3ccccc3nc21 | inactive: 0.119%
51 | COc1ccccc1CNC(=O)c1nnn(CC(=O)Nc2c(C)cccc2C)c1N | inactive: -3.09%
52 | CC(=O)c1ccc(N2CCN(c3ncnc4c3cnn4-c3cc(Cl)ccc3C)CC2)cc1 | inactive: 0.9%
53 | Cc1ccc(CNC(=O)CN2N=C(c3ccccc3)CCC2=O)cc1 | inactive: 10.1%
54 | CCc1cccc(NC(=O)c2ccc3c(c2)c(C)c(C)n3Cc2ccc(F)cc2)c1 | inactive: -7.54%
55 | CCOc1ccccc1NC(=O)c1c(NC(=O)Cc2ccc(OC)cc2)sc2c1CCC2 | inactive: 1.44%
56 | Cc1ccc(OCC(=O)Nc2cccc(C(=O)OCc3cc(=O)n4c(C)csc4n3)c2)cc1 | inactive: 0.0787%
57 | Cc1ccc(NC(=O)COc2ccc3oc4c(c3c2)CCCC4)cc1C | inactive: 1.28%
58 | Cc1ccc(CN2COc3c(Cl)cc4c(-c5ccccc5)cc(=O)oc4c3C2)cc1 | inactive: -7%
59 | Cc1cccc(CSc2nnc3[nH]c(=O)cc(-c4ccccc4)n23)c1 | inactive: -10.9%
60 | COc1cc(-c2nc3ccc(Cl)cn3c2Nc2ccc3c(c2)OCCO3)ccc1O | inactive: -15%
61 | O=C(c1ccc2c(c1)N(Cc1ccc(Cl)cc1)C(=O)c1ccccc1S2(=O)=O)N1CCN(c2ccccn2)CC1 | inactive: 0.568%
